For 42 sequences, binding signal results are on record in article PMC7819943, “Rice protein-binding microarrays: a tool to detect cis-acting elements near promoter regions in rice”.

The list shows a part of the results.

The target of this assay is T1, OsWOX13 (Oryza sativa, UniProt Q5QMM3 1-267).
T1 sequence: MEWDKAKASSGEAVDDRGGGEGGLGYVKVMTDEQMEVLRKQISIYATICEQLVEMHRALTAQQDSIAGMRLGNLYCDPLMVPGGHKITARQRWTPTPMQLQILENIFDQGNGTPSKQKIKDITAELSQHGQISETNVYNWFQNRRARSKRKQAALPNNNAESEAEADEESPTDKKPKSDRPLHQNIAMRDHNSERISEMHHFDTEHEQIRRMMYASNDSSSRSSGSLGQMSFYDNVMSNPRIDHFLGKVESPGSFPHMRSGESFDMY
The experiment in a line: protein-binding microarray (RPBM); PBS, 2% BSA, 51.3 ng/ul salmon testes DNA, 50 uM zinc acetate, 200 nM TF, 25 C, 1 h; high values mean tight binding. The settings on record: protein: recombinant; tags: N-terminal polyhistidine and DsRed monomer fusion (pET32a); label: CyDye5-dUTP incorporated in the synthesized complementary strand; 3' TTTTT single-stranded linker to array surface; dsDNA, one strand shown. In short, it runs like this:
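An Axon 4000B scanner gave the binding signal as per-feature fluorescence intensity in arbitrary units. This followed washing of a custom Agilent array that had been incubated for 1 h at 25 °C with 200 nM protein in PBS, 2% BSA, salmon testes DNA and 50 µM zinc acetate. The proteins were transcription factors fused at the N-terminus to polyhistidine and DsRed, expressed in E. coli BL21-CodonPlus and purified on Ni–NTA.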
In the case of “ATCAGAACTAATTGTGTAGTGTTATTAGTTGCTGGCATATCGGAGTCACCTAGTGCAG”, the binding signal was 5830 fluorescence intensity (a.u.).

“CAACTGATTGGTCTCACACCCGACCTAACGGCTAACGCAACGGAGTCACCTAGTGCAG”: the binding signal was 46600 fluorescence intensity (a.u.).

On to “ACCAAAATTAGCATCAGTGAGCTACTTGCCTGGCCAACCGCGGAGTCACCTAGTGCAG”, for which the binding signal was 4790 fluorescence intensity (a.u.).

With “AAGTGCAATTCACTCAATTAGTTATAAAGACCAATCGTTCCGGAGTCACCTAGTGCAG”, the binding signal is 4250 fluorescence intensity (a.u.).

As to “CATGAGATGATTGAACTGGGACATGTTAGTCAAGGTTTTCCGGAGTCACCTAGTGCAG”, the binding signal is 25400 fluorescence intensity (a.u.).

With “AGTCTAATAACAAAACAAATTACAAATTCTGACAGGAAGCCGGAGTCACCTAGTGCAG”, the binding signal is 12600 fluorescence intensity (a.u.).

Take “TGTCCTGATTTGGTGTTTTATTTTACTTAAGATTCAGAAGCGGAGTCACCTAGTGCAG”: the binding signal was 14900 fluorescence intensity (a.u.).

Consider “ACTTGGATTGGATAGTTACTACAAGGCCGAGATAGATGAGCGGAGTCACCTAGTGCAG”, for which the binding signal is 12100 fluorescence intensity (a.u.).

On to “TTTGATTCGTGACAGGTGGTAGGAGAGCTAATTGTTCCTGCGGAGTCACCTAGTGCAG”, for which the binding signal is 10300 fluorescence intensity (a.u.).

In the case of “TTATGAATGACTGTTCACTGTACATTAATATGCACTTCATCGGAGTCACCTAGTGCAG”, the binding signal is 4200 fluorescence intensity (a.u.).

As to “TTTTAATTTATGAATGCAGACATGGTGATCTAACACCATACGGAGTCACCTAGTGCAG”, the binding signal is 29900 fluorescence intensity (a.u.).

Turning to “TGTCATGATTTGATAATGTGGTGCTACAGTAAATATTTGCCGGAGTCACCTAGTGCAG”, the binding signal was 26800 fluorescence intensity (a.u.).

As for “GTGCTTAATTAACCTCCGCGGCAAGAATAAGCCATAATTTCGGAGTCACCTAGTGCAG”, the binding signal is 6090 fluorescence intensity (a.u.).

Take “CAGATTAGTAGATAGATTTACTCTCTCTCTTTATTTAATCCGGAGTCACCTAGTGCAG”: the binding signal is 9890 fluorescence intensity (a.u.).

As to “GTAAACTGTGAGACGAATTTATTAAGCTTAATTAATCCGTCGGAGTCACCTAGTGCAG”, the binding signal is 10400 fluorescence intensity (a.u.).

For the sequence “ATGATTAAAATTTAGTGCTGATCACCTTAGTCATTGAAATCGGAGTCACCTAGTGCAG”, the binding signal was 18100 fluorescence intensity (a.u.).

With “TTCTGAATGTGATTGAATTAATTGGACTTGCGTTGACCTTCGGAGTCACCTAGTGCAG”, the binding signal was 59500 fluorescence intensity (a.u.).

Take “TCAATCGGATTGATTGTTCACTTGAATATGTTGGTTACAACGGAGTCACCTAGTGCAG”: the binding signal is 26800 fluorescence intensity (a.u.).

Turning to “CATGAATTGAAGGATGCAGATTAGACTTATTGCCAGGCTACGGAGTCACCTAGTGCAG”, the binding signal is 7720 fluorescence intensity (a.u.).

For the sequence “CAATTCAATCTGAGATTTGTACACCATGACATTTTCTTCACGGAGTCACCTAGTGCAG”, the binding signal was 3560 fluorescence intensity (a.u.).

As for “ACAAATCAACAATTAGTAGAATTTTGCTTGTGAGGCTCATCGGAGTCACCTAGTGCAG”, the binding signal is 9370 fluorescence intensity (a.u.).

Turning to “GATGAATTAATATGTGATATATCATTCCACAAGTATGCAACGGAGTCACCTAGTGCAG”, the binding signal is 7050 fluorescence intensity (a.u.).

For “ACCAAATTATCTCCCTGAATCTAATACACCTTCTTCCTCCCGGAGTCACCTAGTGCAG”, the binding signal was 15900 fluorescence intensity (a.u.).

For the sequence “AATATTAGTATTAATTGATAAAAGTTCGTCACGCGAGTTACGGAGTCACCTAGTGCAG”, the binding signal is 18200 fluorescence intensity (a.u.).

Consider “TCCCTAATGGCCTAATCTAGGCTCATTTAGGCTCGATCGCCGGAGTCACCTAGTGCAG”, for which the binding signal is 3210 fluorescence intensity (a.u.).

Regarding “TTATATTTAGCAATTAGCAAAAGATAGTTTCACTAACTTGCGGAGTCACCTAGTGCAG”, the binding signal is 3560 fluorescence intensity (a.u.).

For “AAACTTATCAATCATGCGTTTTCTTGTTTTCGTGGATCATCGGAGTCACCTAGTGCAG”, the binding signal was 19200 fluorescence intensity (a.u.).

Consider “AGGGAGATTAGATTAGTTAGGAGAAAACGACGAGCAAGGACGGAGTCACCTAGTGCAG”, for which the binding signal is 18600 fluorescence intensity (a.u.).

Regarding “ATGAAATTGTAATTCTATATGATACTTGGATGCTTATATACGGAGTCACCTAGTGCAG”, the binding signal is 5930 fluorescence intensity (a.u.).

As for “GGCATTCCTCTCAATCAGGCAAAAGGAGAGGGAAATATGGCGGAGTCACCTAGTGCAG”, the binding signal was 3960 fluorescence intensity (a.u.).

Regarding “GCCCTTTGTGGCTGCATCATGAACATGATAATTCACAACACGGAGTCACCTAGTGCAG”, the binding signal was 3410 fluorescence intensity (a.u.).

With “AGCAAACTGACAGGCGAGGAGAATCAGGCAAATCACCTAGCGGAGTCACCTAGTGCAG”, the binding signal was 10100 fluorescence intensity (a.u.).

As for “ATAATATAATTATGTAAGATTTTGTTGTAAAGATTTAATTCGGAGTCACCTAGTGCAG”, the binding signal is 8060 fluorescence intensity (a.u.).

Consider “GGTGCAAATTTAAGCCCGATTGAGATGACTTCGTTCTGACCGGAGTCACCTAGTGCAG”, for which the binding signal was 17000 fluorescence intensity (a.u.).

Consider “TGTAAACTGGTTAGACCCGATTGTTTTGCAGACGGCCTAGCGGAGTCACCTAGTGCAG”, for which the binding signal was 7470 fluorescence intensity (a.u.).

Turning to “AAAACAAATTTTATTATAAATATACGTTTAACTAACTTAGCGGAGTCACCTAGTGCAG”, the binding signal was 6070 fluorescence intensity (a.u.).

Take “TTAGAAGCCAATTACCTTGATGGCTTAAACCGGGTGAATTCGGAGTCACCTAGTGCAG”: the binding signal was 4470 fluorescence intensity (a.u.).

“ATTAAATTTGGGCTAACTGGCCTCCACACATCCCATATAACGGAGTCACCTAGTGCAG”: the binding signal was 11000 fluorescence intensity (a.u.).

For the sequence “GTTAATTTTGTTTAATTAATGGTGGAAGCAGCCATCATCACGGAGTCACCTAGTGCAG”, the binding signal was 38200 fluorescence intensity (a.u.).

On to “GTCGAAACGGGTAATTAACGCAGTGTGTGGGAGGGAGGAGCGGAGTCACCTAGTGCAG”, for which the binding signal is 7630 fluorescence intensity (a.u.).

As to “ACAATCTCTTCAATTATATATGTGACATCATACTTTCTATCGGAGTCACCTAGTGCAG”, the binding signal was 10600 fluorescence intensity (a.u.).

Take “TTCTGACTTGATTATGTGCAACGCGACTGATGCGAATGGGCGGAGTCACCTAGTGCAG”: the binding signal is 25700 fluorescence intensity (a.u.).
